# In PubChem BioAssay AID488969 (Vanderbilt High Throughput Screening Facility, 2010):
# In all, about 110,000 compounds were measured (“z-score”: median about -0.1, highest 2% from about 2 on). The list shows a part of the results. Residues, ends and D or L forms follow the SMILES beside them. *: point of attachment. Boc = CC(C)(C)OC(=O)*
# Target: Metabotropic glutamate receptor 8 (Rattus norvegicus) (UniProt P70579)
# Assay: rat mGluR8 modulators via GIRK flux, primary screen, cell-based, thallium flux, HTS (AID 488969)
# Settings: HEK293 rat mGluR8, GIRK (G protein-gated inwardly rectifying potassium channel) thallium flux, FluoZin2; at 10 µM; stronger effect = higher value; submaximal glutamate (EC20) added with thallium
# UniProt P70579, sequence (P70579 whole entry, looked up): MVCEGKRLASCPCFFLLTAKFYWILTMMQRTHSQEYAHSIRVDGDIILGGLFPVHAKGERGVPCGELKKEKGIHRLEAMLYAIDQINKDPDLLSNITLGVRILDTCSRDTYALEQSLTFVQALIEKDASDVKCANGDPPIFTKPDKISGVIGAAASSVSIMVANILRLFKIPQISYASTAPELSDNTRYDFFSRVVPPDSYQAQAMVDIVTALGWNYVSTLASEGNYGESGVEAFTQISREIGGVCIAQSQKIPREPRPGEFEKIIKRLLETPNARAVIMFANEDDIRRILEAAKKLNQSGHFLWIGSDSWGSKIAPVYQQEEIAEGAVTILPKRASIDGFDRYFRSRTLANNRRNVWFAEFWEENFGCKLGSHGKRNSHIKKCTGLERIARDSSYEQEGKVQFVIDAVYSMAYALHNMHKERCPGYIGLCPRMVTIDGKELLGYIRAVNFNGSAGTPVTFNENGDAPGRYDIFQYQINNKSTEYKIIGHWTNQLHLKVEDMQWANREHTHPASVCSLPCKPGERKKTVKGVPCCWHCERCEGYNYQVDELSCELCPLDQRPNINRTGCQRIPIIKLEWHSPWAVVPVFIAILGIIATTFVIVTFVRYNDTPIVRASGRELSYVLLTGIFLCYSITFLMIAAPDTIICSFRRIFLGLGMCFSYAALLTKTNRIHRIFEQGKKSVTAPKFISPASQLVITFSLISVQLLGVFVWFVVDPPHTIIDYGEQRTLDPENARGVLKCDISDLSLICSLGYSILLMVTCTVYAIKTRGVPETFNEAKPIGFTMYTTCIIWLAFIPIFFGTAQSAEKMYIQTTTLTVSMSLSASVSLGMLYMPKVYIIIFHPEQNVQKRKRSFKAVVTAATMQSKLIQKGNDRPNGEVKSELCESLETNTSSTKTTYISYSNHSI
row,SMILES,z-score
1,Cc1cc(C)nc(/N=C(/NC(=O)Nc2ccc(Cl)c(Cl)c2)Nc2ccccc2)n1,-0.279
2,C=CCSc1nnc(NC(=O)c2cccc(S(=O)(=O)N(C)c3ccccc3)c2)s1,0.542
3,O=C(Cn1nnc(-c2ccccc2Cl)n1)N/N=C/c1ccc2c(c1)OCO2,0.343
4,Cc1cc(C)n2nc(C(=O)N/N=C/c3c4ccccc4cc4ccccc34)nc2n1,-0.604
5,COCCn1c(SCC(=O)NC(=O)NC(C)(C)C)nc2ccccc21,-0.643
6,N#C/C(=C\c1ccc([N+](=O)[O-])o1)c1nc2ccccc2[nH]1,0.245
7,O=C(N/N=C/c1ccccc1O)c1cc(=O)[nH]c2ccccc12,-0.0583
8,Cc1cc(C(=O)N/N=C/c2ccc[nH]2)n[nH]1,-0.0646
9,CC(=O)Nc1cccc(-c2csc(NCc3ccco3)n2)c1,-0.826
10,CCOCC(=O)Nc1ccc(S(=O)(=O)N2CCOCC2)cc1,0.177
11,COc1ccccc1OCC(=O)NC1CCCCCC1,-0.55
12,COc1cccc(C(=O)Nc2ccccc2)c1,-0.0644
13,CCNS(=O)(=O)c1ccc(NS(=O)(=O)c2cc(C)ccc2C)cc1,0.0943
14,N#C/C(=C\c1cn(CC(=O)N2CCCC2)c2ccccc12)C(=O)NCc1ccc2c(c1)OCO2,-0.396
15,Cc1ccc(Cn2nnc3c(=O)n(CC(=O)N4CCCCC4)cnc32)cc1,-0.106
16,CCOC(=O)c1sc2cccc(F)c2c1N,0.117
17,O=C(/C=C/c1ccc(Cl)cc1)Nc1ccc(N2CCCCC2)cc1,-0.165
18,Cc1cc(C)cc(N2C(=O)C3C4C=CC(C4)C3C2=O)c1 (centres undefined),-0.0297
19,CCOC(=O)C1CCCN(C(=O)CSc2nccn2C)C1 (centres undefined),2.87
20,Cc1c(NC(=O)Nc2ccccc2Cl)sc(=S)n1C,-0.172
21,CCOC(=O)Cc1csc(NC(=O)c2c(-c3c(F)cccc3Cl)noc2C)n1,-0.309
22,Cn1c(SCc2c(F)cccc2Cl)nnc1-c1cccs1,-0.501

row,SMILES,z-score
1,O=C(c1cc(-c2cccs2)on1)N1CCN(C(c2ccccc2)c2ccccc2)CC1,0.308
2,COC(=O)c1c(CSc2ccc(Cl)cc2)noc1C(=O)NCc1ccco1,-0.229
3,N#CC1=C(Nc2ccccc2)SC=C(c2ccccc2)N=C1N1CCOCC1,0.284
4,COc1ccc(Cl)cc1S(=O)(=O)N1CCN(c2ccc(F)cc2)CC1,0.0144
5,CC1CCN(c2ncnc3nc[nH]c23)CC1,0.121
6,NC(=S)Nc1ccc(Oc2ccc(NC(N)=S)cc2)cc1,0.865
7,CCCCCOc1ccc(NC(=O)C2OC3OC(C)(C)OC3C3OC(C)(C)OC23)cc1 (centres undefined),-0.234
8,COc1ccc(Br)cc1CN(C)CC(=O)Nc1ccccc1Cl,-0.228
9,O=C(Nc1ccc(O)cc1)c1ccc(C(=O)c2ccccc2)o1,0.143
10,COC(=O)c1ccccc1NC(=O)c1nc2nc(C)cc(C(F)F)n2n1,-0.276
11,CCC(=O)Nc1ccc2nc(C)n(Cc3ccccc3Cl)c(=O)c2c1,0.861
12,CCOC(=O)CCC(=O)N1CCOCCOCCN(C(=O)CCC(=O)OCC)CCOCCOCC1,-0.135
13,Cc1ccc(C)c(NS(=O)(=O)c2cc(C(=O)NCc3ccco3)ccc2C)c1,-0.408
14,CCOC(=O)C1(S(=O)(=O)c2ccc(Cl)cc2)CCN(Cc2ccc(C)cc2)CC1,1.14
15,O=C(NCCCN1CCCCC1)c1ccc2c(c1)NC(=O)C(N1CCCCC1)S2 (centres undefined),0.905
16,CN(CCC#N)C(=S)Nc1ccc(Oc2ccccc2)cc1,-0.139
17,O=C1CCC(=O)N1OCCCOc1ccc2c(c1)CCC2,-0.84
18,Cc1cc(C[n+]2ccccc2)c2nsnc2c1,0.0632
19,CCN(CC)S(=O)(=O)c1ccc(NC(=O)COC(=O)CCc2cc(OC)c(OC)c(OC)c2)cc1,-0.165
20,Cc1cccc(Cn2c(Cc3ccccc3)nc3ccccc32)c1,-0.403
21,CCc1nnc(NC(=O)c2sc3nc4c(cc3c2N)CCCCC4)s1,-0.297
22,Cc1ccc(-c2cc(C(F)F)n3ncc(C(=O)N4CCN(c5cccc(C)c5C)CC4)c3n2)cc1,-0.482

row,SMILES,z-score
1,COc1ccc(-c2cc(=O)oc3cc(OCc4nn[nH]n4)ccc23)cc1,-0.385
2,O=C1CCCN1c1ccc(S(=O)(=O)Nc2ccc3c(c2)OCCO3)cc1,0.0224
3,CCN(CC)C(=O)Cn1cnc2sc(C(=O)Nc3cc(OC)c(OC)c(OC)c3)c(C)c2c1=O,-0.344
4,CCCc1cc(=O)n2[nH]c(NCc3ccccc3F)nc2n1,-0.425
5,O=C(c1ccc(Br)cc1)N(C1=NCCCCS1)c1ccccc1,-0.223
6,Cc1ccc(CC(=O)N/N=C/c2ccc(OC(=O)c3ccc([N+](=O)[O-])cc3)cc2)cc1,-0.299
7,COc1ccc(/C=N/N2CCOCC2)cc1COc1ccc(Cl)cc1,0.0786
8,O=C1CCCc2nc(N3CCc4ccccc43)ncc21,-0.717
9,Cc1cc(C)c(C)c(/C=C(/C#N)C(N)=S)c1C,0.448
10,N/C(=N\c1nc2c(c(=O)[nH]1)CCCC2)Nc1ccc(Oc2ccccc2)cc1,-0.175
11,Cc1nn(C)c(C)c1C(=O)NN,-0.373
12,O=C(Nc1ccc2c(c1)OCO2)c1cnn2c1NC(c1ccco1)CC2C(F)(F)F (centres undefined),-0.418
13,CCc1nn2cc(C(=O)c3ccccc3O)cnc2c1-c1ccc(F)cc1,-0.445
14,Cc1c(C(=O)OC(C)C)sc(NC(=O)c2cccnc2)c1C#N,-0.473
15,Oc1c(C(c2cccs2)N2CCOCC2)sc2ncnn12 (centres undefined),-0.135
16,CN1CCN(Cc2nc3c([nH]2)c(=O)[nH]c(=O)n3C)CC1,-0.507
17,Cc1cccc(NC(=S)Nc2ccc(Oc3ccccc3)cc2)n1,0.00566
18,COc1ccccc1OC(C)c1nnc(SCC(=O)Nc2c(C)n(C)n(-c3ccccc3)c2=O)n1-c1ccccc1 (centres undefined),0.0106
19,CCC1Oc2ccccc2N(Cc2ccccc2C)C1=O (centres undefined),-0.203
20,Cc1cc(=O)oc2c(CN(C)Cc3ccccc3)c(O)ccc12,-0.0689
21,CCOC(=O)Cc1csc(NC(=O)CSc2nnc(C)n2C)n1,-0.145
22,Cc1ccc(-c2nc(N)sc2CC(=O)OCC(=O)NCC2CCCO2)cc1 (centres undefined),-0.161

row,SMILES,z-score
1,S=c1[nH]nc(-c2ccccc2)n1/N=C/c1cccs1,0.587
2,CCC1(c2ccc(F)cc2)NC(=O)N(CC(=O)c2ccc[nH]2)C1=O (centres undefined),0.707
3,CC1CCCC(NC(=O)COC(=O)c2c[nH]c(=O)[nH]c2=O)C1C (centres undefined),0.249
4,COC(=O)c1nn(-c2ccccc2)c(Sc2ccc(Br)cc2)c1/C=N/O,-0.191
5,O=C(O)c1ccc(-c2ccc(O)c(F)c2)cc1,0.639
6,O=C(CCS(=O)(=O)Cc1ccccc1)NC1CCCCC1,-0.346
7,O=C(N/N=C/c1ccccc1OCc1ccccc1)c1cccs1,-0.124
8,COc1ccc(NC(=O)CN2CCN(c3ccc(F)cc3)CC2)cc1Cl,0.303
9,Cc1cccc2sc(N(CCN(C)C)C(=O)/C=C/c3cccs3)nc12,-0.145
10,CC(=O)c1c(C)oc2ccc(NS(=O)(=O)c3ccc(O)c(C(=O)O)c3)cc12,0.0135
11,CC(C)Cn1c(-c2ccco2)csc1=Nc1cccnc1,-0.22
12,C=CCn1c(COC)nnc1SCC(=O)c1ccc(F)cc1,-0.00617
13,Cc1cc2c(c(=O)n1Cc1ccc3c(c1)OCO3)C(c1cccnc1)C(C#N)=C(N)O2 (centres undefined),-0.479
14,Cc1cccc(CS(=O)(=O)Cc2ccc(C(=O)NCCCN3CCOCC3)o2)c1,-0.0985
15,c1ccc(N2CCN(c3ncccn3)CC2)cc1,-0.166
16,Cc1oc(-c2ccccc2F)nc1CS(=O)CC(=O)NCc1ccc2c(c1)OCO2 (centres undefined),-0.385
17,Cc1cc(C(C)(C)C)oc1C(=O)N(CC(=O)NC1CCCC1)c1ccc(F)cc1,-0.319
18,CC1CCN(C(=O)CCCOc2cc(=O)n(C)c3ccccc23)CC1,0.0485
19,CCN1CCN(c2nc3c(c(=O)n(C)c(=O)n3C)n2Cc2cccc3ccccc23)CC1,-0.307
20,CCC1(COC(NC(=O)c2cccnc2)(C(F)(F)F)C(F)(F)F)COC1,-0.111
21,COC(=O)c1ccc(Sc2ccc(F)cc2)c(N)c1,-0.17
22,CC(C)=NN/C(N)=N/C(=S)Nc1ccc(C)cc1,0.199

row,SMILES,z-score
1,COc1ccc2c(=O)c(-c3ccccc3C)c(C)oc2c1,-0.284
2,Cc1nn(-c2ccccc2)c(Cl)c1C(=O)NCc1cccs1,-0.201
3,COc1ccc(-c2cc(CN3C(=O)c4ccccc4C3=O)on2)cc1,-0.0244
4,N#Cc1c(NC(=O)CSc2nc(-c3ccccc3)cc(C(F)(F)F)n2)sc2c1CCC2,0.0217
5,Cc1cc(C)nc(Sc2ncnc3c2oc2ccccc23)n1,-0.444
6,COc1cccc(S(=O)(=O)NCc2ccc3c(c2)OCO3)c1,1.36
7,CCCn1c(CN(C)Cc2ccccc2)nc2c1c(=O)n(C)c(=O)n2C,-0.000123
8,Cc1ccc(NC(=O)CSc2nnc(-c3ccncc3)n2N)cc1C,-0.422
9,O=C(CNC(=O)c1ccccc1)OCc1ccc([N+](=O)[O-])cc1,-0.159
10,COc1ccc(OC)c(S(=O)(=O)Nc2ccccc2C(F)(F)F)c1,1.52
11,Cc1ccc(OCc2nc(-c3ccccn3)n[nH]2)cc1,-0.23
12,O=C(Nc1nnc(-c2ccccc2)o1)c1cccc(N2C(=O)CCC2=O)c1,-0.326
13,CCOc1cc(C(=O)NC(C)CC)cc(OCC)c1OCC (centres undefined),-0.153
14,Cc1nc2sc(C(c3cccc(F)c3)N3CCN(C(=O)c4ccco4)CC3)c(O)n2n1 (centres undefined),-0.183
15,O=S(=O)(CCSc1nc2ccccc2o1)Cc1ccccc1,-0.248
16,Cc1ccc(NC(=S)N(CCN(C)C)Cc2cc3cc(C)cc(C)c3[nH]c2=O)cc1,-0.129
17,CCC(C)C(NC(=O)OC(C)(C)C)C(=O)NC(Cc1ccccc1)C(=O)OC (stereo not drawn) (Boc-Ile-Phe-OMe; configuration not given here),-0.0149
18,CCN(c1ccccc1)S(=O)(=O)c1ccc(Cl)c(NC(=O)COC(=O)c2ccc(O)cc2)c1,0.222
19,CC(NC(=O)/C=C/c1ccco1)c1nc2ccccc2n1Cc1c(Cl)cccc1Cl (centres undefined),-0.0115
20,COc1ccc(CC(=O)Nc2ccc(S(=O)(=O)Nc3nc(C)cc(C)n3)cc2)cc1,0.396
21,CNC(=O)/C(=C\C=C\c1ccccc1)NC(=O)c1ccc([N+](=O)[O-])cc1,0.113
